# Data as given in PubChem BioAssay (NCI).
# A structure can be active in one record and inactive in another.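 Testing used 96-well plates and a 48-hour single-concentration exposure. Example: -40 means 40% of the starting cells died.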 The source holds more than one record for some entries. This list holds those alone. How the source made its calls: active means growth percent below 10; inactive means the rest. An entry can have further records. The screen tested this drug many times, at the concentration stated with the values; one value stands for one run. Signs of the kind (2×) say how often a value occurs here.
# How the values were obtained:
# Experiment in all cases: NCI-60 one-dose screen, 48 h (100 = growth as untreated, 0 = no growth, -100 = all killed)
# MDA-MB-231 breast = details: 2.5 mM; runs of 2000
# RXF 393 renal = details: 2.5 mM
# SF-268 CNS = details: 2.5 mM
smiles,measurement,setting,value
O=c1[nH]cc(F)c(=O)[nH]1,growth,MDA-MB-231 breast,"active: 0.0747, 1.34, 3.42, -25.4%"
same,growth,RXF 393 renal; runs of 1991,"active: -47.2, -53.1, -48.7, 8.4, -43.3, -6.17, -54.5, -38.6, 6.87, -39.7, -35.7, -22.5, -48.9, -26.8, -39.3, -54.3, -45.8, -42.1%"
same,growth,RXF 393 renal; runs of 1992,"active: -15.3, -44.4 (2×), -18, -47.4, -38.4, -39.1, -10.5, -12, -39.3, -26.6 (2×), -58.9, -54.5 (2×), -36.8, -71.5, -50.9, -0.616, -43.1, -37.4, -15, -45, -45.8, -19.8, -41.4, -21, 1.1, -72.1, -13.7, -52.4, -30.1, -79.2, -78.5, -11.6, -24.9, -10.2, -41.8, -36.5, -21.8, -39.9, -22.7, -17.1, -56.6, -62.9, -73.7, -76, -55.7, -50.2, -62.6, -35.2, -61.2, -52.8, -57, -70.3, -68.4, -34.1, -22, -16.6, -57.2, -44.2, -27.3, -56.4, -55.5, -29.2, -55.6 (2×), -31.4, -60.6, -61.9, -78.3, -68.1 (2×), -42, -38, -64.2 (2×), -4.01, -32.4, -65.2, -34.2, -68.7, -9.65, -34.7, -33.7, -12.4, -82.5, -64.4, -2.97% and inactive: 29.2, 17.8, 87.9, 33.1, 47.8%"
same,growth,RXF 393 renal; runs of 1993,"active: 4.75, -58.2, -30.8, 4.9, -41.4, -31.2, -64.9, -43.6, -65, -52.2, -26.2, 1.08, -47.8, -21.6, -33.8 (2×), -45.7, -2.95, -19.9, -53.8, -41.8, -23.2, -9.06, -55.5, -58.8, -42.2, -43.2, -37.1, -25.4, -74.3, -21, -40.9, -13.4, -13.9, -1.58% and inactive: 30.2, 13.6, 50.1, 83.9, 98.8, 17%"
same,growth,RXF 393 renal; runs of 1994,"active: -29, -11.6, -16.2, 4.28, -48.7, -23.2, -6.72, -30.4, -43, -22.8, -22.6, -45.7, -17.5, -12.1, -29.3, -0.101, -43.7, -53, -8.96, -52.9, -49.4% and inactive: 16.7, 24.4, 17.4, 36.4%"
same,growth,RXF 393 renal; runs of 1995,"active: 2.15, -82.3, -59.1, -2.84, -74.9, -24.3, -67.3, -33.2, -55.3, -59.2, -79.7, -14.1, -82.6, -21.5, -73.1, -35 (2×), -15.5, -13.2, -29.8, -36.3, -11.2, -18.9, -33.4, -57.1, -40.3, -9.47, -65.5, -42.2% and inactive: 37.4, 20.7, 13.1, 14.3, 16.7, 50.7%"
same,growth,RXF 393 renal; runs of 1996,"active: -11.4, -19, -75.1, -34.9, -9.09, -33.6, -6.68, 5.88, 9.28, -59.4, -27.7, -14.2, -69.2, -45.8, 0, -16.1, -67, 7.3, -5.75, -18.7, -35.9 (2×), -18.8, -25, -23.6, 8.61, -3.33, -10.6, -52, -44.5, -41.5, -7.59, -23.5 (2×), -21.1, -17.5, -48.8, -25.6, -23.4, -11.2, -40.9, -35.6 (2×), -67.7, -8.83, -32, -27.5% and inactive: 20.2, 58.1, 25, 15.8, 18.7, 37.1, 38.7, 35.8%"
same,growth,RXF 393 renal; runs of 1997,"active: -13.1, -3.94, -44.1, -13, -23, -46.2, -8.03, 1.37, -11.2, -23.7, -35.3, -16.9, -45.6, -19.2, -57, -18.1, -39.4, -38.7, -19.6, -48.1, -71.5, 7.44, 4.84, -14.7, -17.5, -12.5, -12.7, -8.22, 1.62, -60.8, -41.5, -1.43, -29.7, -42.2% and inactive: 34.6, 15.4, 65, 14.8, 65.1%"
same,growth,RXF 393 renal; runs of 1998,"active: -5.75, -35.9, -3.4, -17.2, -21.1, -4.54, -26.5, -25.2, -3.44, -43.3, -43, -47.7, -22.8, -43.2, -26.3, -36.4, -42.6, -12.9, -57.6, -39.7% and inactive: 11.4%, 16%"
same,growth,RXF 393 renal; runs of 1999,"inactive: 89.3%, 74.2% and active: -19.8, -57.7, -63.8, -46.1, -21.5, -27.3, -6.12, -22.1, 1.85, -41.7, 6.77, -45, -58.4, -44.3, 1.66%"
same,growth,RXF 393 renal; runs of 2000,"active: 0.963, -51.8, -1.94, 0.0266%"
same,growth,SF-268 CNS; runs of 1991,"inactive: 39.5, 41.4, 35.1, 38.5, 32.3, 30.9, 12.1, 38.6, 35.6, 36.5, 24.8, 30, 16.7, 27.1, 33.6, 28.5, 27.4, 15.9% and active: 3.12%, -94.1%"
same,growth,SF-268 CNS; runs of 1992,"inactive: 34.8 (2×), 33.4, 27.7 (2×), 30.9, 23.8, 13.1, 20.4 (2×), 18.4 (2×), 35.2, 27.8, 31, 17.5, 25.9, 24.5 (2×), 23.6, 20.9 (2×), 22.9, 51.3, 24.3, 38.6 (2×), 31.4 (2×), 37.6 (2×), 34.6, 40.5, 25, 39.8, 19.9, 22.8, 22.4, 39.3, 40.4, 42.8, 40.1 (2×), 45.4, 36.5, 24 (2×), 23.5, 34.9 (2×), 29.1, 26.1, 41.4, 59.9, 102, 43.1, 37.8, 37.7, 41.3, 50.9, 53.6, 16.1, 18.3, 24.9, 37.2, 34.1, 19.4, 37.3, 48.9, 39.2, 32, 53.1, 29.9, 29.3, 26.8 (2×), 24.4, 21.9, 20.2, 48, 43.5, 37.9, 28, 28.6, 34.3, 26.2, 22.2, 33.7, 17.8, 44.1, 30.7, 27.3 (2×), 36.1, 22.5 (2×), 22.3, 16.6, 25.3, 63.8, 15.6, 37.5, 31.8, 45.9, 12.3, 42.5, 36.3, 28.4, 31.6, 16, 63.7, 19.2, 31.2, 42.3% and active: 8.47, -1.03, 3.98, 6.74, 4.61, 2.33, 2.31, -1.49%"
same,growth,SF-268 CNS; runs of 1993,"inactive: 23.6, 45.5, 46.8, 38.6 (2×), 34, 17.2, 43.1, 30.7, 24.4, 30, 45.9, 34.4 (2×), 11.9, 33.2, 20.5, 27.4, 33, 31.8, 31.4, 26.5, 29.6, 32.5, 31.9, 80, 30.6, 20.8, 34.7, 27.8, 14.1, 36.5, 38.4, 23.7, 39.2, 26.6, 82.2, 44.5, 91.8, 19.2, 43.8, 17.6, 36.8, 24.7, 31.5, 37.1, 10.2% and active: -20.9%"
same,growth,SF-268 CNS; runs of 1994,"inactive: 24.4, 40.2, 40.6 (2×), 21.5, 36.6, 30.4 (2×), 24.3 (2×), 45.2, 38.9, 35.9, 39.5, 26.5, 20, 42.5, 47.6, 34.4, 36.7, 27.6, 37.4, 32.3, 21.8, 44.3, 25.4, 33.8, 26.9, 22.2, 28.7, 43.8% and active: -62.7%, 9.01%"
